± gives the standard deviation of the averaged measurements. The list shows a part of the results.
Test system: PfAP2-LT AP2 domain (GST-tagged)
Experiment: gcPBM binding intensity (ln(normalized median fluorescence intensity)); higher = stronger DNA binding
How it was run: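 GST-tagged P. falciparum DNA-binding domains, expressed in E. coli (about 25 μg on average), were applied for 1 h to an Agilent 4 × 180k array of primer-extended double-stranded 36-bp intergenic genomic probes plus negative controls. The binding buffer was 1× PBS with 1% milk, 0.2 mg/ml BSA, 0.5% salmon testes DNA and 0.03% Triton X-100. Bound protein was detected with Alexa488 anti-GST antibody and scanned at 488 nm. Binding intensity is the highest Masliner-normalised natural-log median intensity across replicate spots of either probe orientation.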

Question: Which “gcPBM binding intensity (ln)” value does the source give for “AAATGTACAGGACGCACACACATATATATATATATA [CACACA_site3674]” here?
Answer: 10.11 ± 0.05

Question: How did the “gcPBM binding intensity (ln)” value turn out when “AAGGAAAATATTAACTGTACATATAAAATATATATA [XGTACX_site5310]” was run?
Answer: 8.64 ± 0.47

Question: Which “gcPBM binding intensity (ln)” value does the source give for “ATATATACCTAAGACACACACATATATATATATATA [CACACA_site764]” here?
Answer: 10.06 ± 0.05

Question: With “TATCATTTATATATGTGTACTTATTTATTTATTTAT [XGTACX_site7961]” as the sequence, how does the “gcPBM binding intensity (ln)” value read?
Answer: 8.94 ± 0.47

Question: For “AAATGAATTTAACAATGTACACATATATTATAAATA [XGTACX_site1449]”, which “gcPBM binding intensity (ln)” value is on record?
Answer: 8.71 ± 0.44

Question: For “TAAGTCAAAACTTTTTTTTCTAAATTTCCATAATTA [GTGCAC_negctrl_site29]”, which “gcPBM binding intensity (ln)” value is on record?
Answer: 8.03 ± 0.55

Question: How did the “gcPBM binding intensity (ln)” value turn out when “ATATACATTCTATATACATGCATACTTCATTTTGTG [TGCATGCA_site966]” was run?
Answer: 9.12 ± 0.49

Question: “ATATATATATGTATATGTACTCATTCTTCTGTGTTT [XGTACX_site5014]” was tested. Which “gcPBM binding intensity (ln)” value did it give?
Answer: 9.28 ± 0.26

Question: How did the “gcPBM binding intensity (ln)” value turn out when “AAAACGATTTTTTGCACACACATAATAAGCAGAACA [CACACA_site3871]” was run?
Answer: 9.37 ± 0.36

Question: How did the “gcPBM binding intensity (ln)” value turn out when “TACATAATAATAAGGCGTACATAAAAATTAAAAATT [XGTACX_site8769]” was run?
Answer: 8.91 ± 0.45

Question: Which “gcPBM binding intensity (ln)” value does the source give for “ATAAAACAAAGACACACACACATACACAAAAAAAAA [CACACA_site7752]” here?
Answer: 9.99 ± 0.42

Question: With “TATCTACTTAAATAAAATAAAAATAATAAATAAAAA [TGCATGCA_negctrl_site312]” as the sequence, how does the “gcPBM binding intensity (ln)” value read?
Answer: 8.32 ± 0.56

Question: For “AATAATCATGATCATAGTACGTATGAATACAAAAAA [XGTACX_site265]”, which “gcPBM binding intensity (ln)” value is on record?
Answer: 9.01 ± 0.41

Question: With “ATGTATAATATTTTCACACACAAGAAAAAAGAAAAG [CACACA_site3591]” as the sequence, how does the “gcPBM binding intensity (ln)” value read?
Answer: 9.27 ± 0.36

Question: Which “gcPBM binding intensity (ln)” value does the source give for “CGTATGTATATATATATACACACTTCTGTGATACGA [CACACA_site1949]” here?
Answer: 9.03 ± 0.27

Question: “TTTTATTTATTCCTACTTTTTTATTTATTTATTTAA [XGTACX_negctrl_site415]” was tested. Which “gcPBM binding intensity (ln)” value did it give?
Answer: 8.65 ± 0.51

Question: “ACATTATGTCATAAATGTACACATACATATACATAC [XGTACX_site8998]” was tested. Which “gcPBM binding intensity (ln)” value did it give?
Answer: 8.93 ± 0.3

Question: For TATTTCACTTTTTGTCTGCACTAAAATTTTATGGTA, which “gcPBM binding intensity (ln)” value is on record?
Answer: 8.81 ± 0.51

Question: “GGTATATAAAAATATTGTACTTAAAAAAATATGTAT [XGTACX_site6253]” was tested. Which “gcPBM binding intensity (ln)” value did it give?
Answer: 8.57 ± 0.41

Question: How did the “gcPBM binding intensity (ln)” value turn out when “TAGATACATAAACACACACACACATACATATATACA [CACACA_site9139]” was run?
Answer: 10.2 ± 0.23

Question: Which “gcPBM binding intensity (ln)” value does the source give for “TTTTGACTAATATAATATGTTAAGAATTAATAAATA [XGTACX_negctrl_site35]” here?
Answer: 8.05 ± 0.58

Question: How did the “gcPBM binding intensity (ln)” value turn out when “AAAAAAAAAAAAAACACACACATATATATAATATAT [CACACA_site3172]” was run?
Answer: 9.37 ± 0.41

Question: With “AAGTATAGTCTTACATATATATATATATATATATAT [GTGCAC_negctrl_site280]” as the sequence, how does the “gcPBM binding intensity (ln)” value read?
Answer: 9.79 ± 0.26

Question: With “CAAAAAGATAAGGTGTGTACGTATTATAATTTTAAA [XGTACX_site531]” as the sequence, how does the “gcPBM binding intensity (ln)” value read?
Answer: 8.97 ± 0.58

Question: For “ATTTAATTTTCCAAATGTACTTATATTTTTATGAAA [XGTACX_site6144]”, which “gcPBM binding intensity (ln)” value is on record?
Answer: 8.27 ± 0.4

Question: Which “gcPBM binding intensity (ln)” value does the source give for TGAAATGATCTTTAGTTGCACTTAAAAATATATATA here?
Answer: 8.39 ± 0.35

Question: How did the “gcPBM binding intensity (ln)” value turn out when “CAGTTTAATTTACATAGTACATAATATTTTAATTTT [XGTACX_site1793]” was run?
Answer: 8.54 ± 0.56

Question: “GTAATATTAATATAATGTACAAAATGAAACATATAT [XGTACX_site6219]” was tested. Which “gcPBM binding intensity (ln)” value did it give?
Answer: 8.97 ± 0.43

Question: With “ACAATATTATTATTTAACCATACACAATTATATGTC [XGTACX_negctrl_site378]” as the sequence, how does the “gcPBM binding intensity (ln)” value read?
Answer: 8.82 ± 0.34

Question: With “AGTATACTCAAACACACACACACAAAAAAAAAAAAA [CACACA_site4398]” as the sequence, how does the “gcPBM binding intensity (ln)” value read?
Answer: 9.88 ± 0.58

Question: Which “gcPBM binding intensity (ln)” value does the source give for “TAAGAAATAAATAGTACACACATAGACACCCACCGA [CACACA_site1516]” here?
Answer: 9.71 ± 0.18

Question: Which “gcPBM binding intensity (ln)” value does the source give for “TTTCGAAAAACAACAAGAAAAAAAAAAAAAAAAAAA [XGTACX_negctrl_site449]” here?
Answer: 8.11 ± 0.64

Question: For “TTAAATATATGTAATACGCACACTTAATATTTTGAG [CACACA_site4170]”, which “gcPBM binding intensity (ln)” value is on record?
Answer: 8.81 ± 0.45

Question: For “AAAAAAAAAAAAAAAACATGCAATAAAGTGTGCGTA [TGCATGCA_site982]”, which “gcPBM binding intensity (ln)” value is on record?
Answer: 8.91 ± 0.38

Question: For “TTTTGGTGGGTTACAAGTACTCAAAATGGATTGTTA [XGTACX_site1951]”, which “gcPBM binding intensity (ln)” value is on record?
Answer: 8.56 ± 0.38

Question: Which “gcPBM binding intensity (ln)” value does the source give for “TCACATACATTACTTACACACCATATTGATATATAC [CACACA_site6353]” here?
Answer: 9.13 ± 0.36

Question: Which “gcPBM binding intensity (ln)” value does the source give for “TGTATATATTATATTTGTACATATAAAACTATATGT [XGTACX_site4782]” here?
Answer: 8.66 ± 0.34

Question: “TATCTCATAGTATACACACACACACGCGCACATATA [CACACA_site6917]” was tested. Which “gcPBM binding intensity (ln)” value did it give?
Answer: 10.1 ± 0.3

Question: With “TTATTTTTTAAAAGTAGTACAAATTTTTATAGAAAA [XGTACX_site7407]” as the sequence, how does the “gcPBM binding intensity (ln)” value read?
Answer: 7.93 ± 0.47

Question: “ATTCCTTGGTTGTATAGTACTTTGGTTAAACATAAA [XGTACX_site6967]” was tested. Which “gcPBM binding intensity (ln)” value did it give?
Answer: 8.66 ± 0.45

Question: Which “gcPBM binding intensity (ln)” value does the source give for “CAATATTTGTTATGGGTGCAAACCGCATATATATAA [GTGCAC_site9543]” here?
Answer: 8.79 ± 0.52

Question: For “ATTAAATCCGCACGCACACACACATATTAATAAAAA [CACACA_site3992]”, which “gcPBM binding intensity (ln)” value is on record?
Answer: 9.71 ± 0.33

Question: For “TAAAAAAGAAAATATATACACACCAAAAAAAAAAAA [CACACA_site3146]”, which “gcPBM binding intensity (ln)” value is on record?
Answer: 8.91 ± 0.43

Question: With “AAACAAAAAAATTGAAATAAAATGAAGTAAATGAAC [TGCATGCA_negctrl_site129]” as the sequence, how does the “gcPBM binding intensity (ln)” value read?
Answer: 8.9 ± 0.66

Question: How did the “gcPBM binding intensity (ln)” value turn out when “AATATTAAAGAATAATGTACAAAATAAAAGCAAAGA [XGTACX_site3550]” was run?
Answer: 9.1 ± 0.61

Question: For “ACATGTCTTAAAAGACGTACATATAAAAGAACCCTA [XGTACX_site8940]”, which “gcPBM binding intensity (ln)” value is on record?
Answer: 8.86 ± 0.47

Question: For “TATTAATTTCACCTTTCACATATGGAAAAAAAAAAA [CACACA_negctrl_site1243]”, which “gcPBM binding intensity (ln)” value is on record?
Answer: 8.21 ± 0.29

Question: Which “gcPBM binding intensity (ln)” value does the source give for “AATGTGCACACGCGTACACACAAAAAAAGAAAAAAA [CACACA_site7031]” here?
Answer: 9.44 ± 0.47

Question: How did the “gcPBM binding intensity (ln)” value turn out when “TATTATTTGAGTAGTTGTACTCATTAATATATAAAA [XGTACX_site3468]” was run?
Answer: 8.23 ± 0.38

Question: Which “gcPBM binding intensity (ln)” value does the source give for “ATTAACATTTTCGTATGTACATATATAATATATGTT [XGTACX_site7184]” here?
Answer: 8.96 ± 0.38

Question: With “AATAAAAATAAAAATTGTACACTTTTTTAATATTTA [XGTACX_site892]” as the sequence, how does the “gcPBM binding intensity (ln)” value read?
Answer: 8.34 ± 0.42

Question: How did the “gcPBM binding intensity (ln)” value turn out when “ATGTTTATTTATTTATGTACTTATATATTTATATAT [XGTACX_site7924]” was run?
Answer: 9.04 ± 0.4

Question: How did the “gcPBM binding intensity (ln)” value turn out when “TTTCCAAATACAACTACACACAAACAAAAATTATAT [CACACA_site4641]” was run?
Answer: 9.15 ± 0.39

Question: “CAAAATATTTATATCACACATATAAATAAAAATAAA [CACACA_site6028]” was tested. Which “gcPBM binding intensity (ln)” value did it give?
Answer: 8.64 ± 0.52

Question: Which “gcPBM binding intensity (ln)” value does the source give for “AAAAAAAAAAAACACACACACAAAATAAACAAACAA [CACACA_site2721]” here?
Answer: 9.62 ± 0.36

Question: “TAATATAATAATAATTGTACTTTTCATAGTGTAATT [XGTACX_site8152]” was tested. Which “gcPBM binding intensity (ln)” value did it give?
Answer: 8.45 ± 0.57

Reference: the supplement of paper PMC11417369
